The whole screen tested about 310,000 compounds, of which about 14,000 (4.5%) showed an effect of 50% or more. Effects have a minus sign here. The list shows a part of the results.
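Further: peak tail current of the secondary pulse compared with the same well before compound.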

human ether-à-go-go-related gene (hERG) potassium channel, sequence (Q12809 whole entry, looked up): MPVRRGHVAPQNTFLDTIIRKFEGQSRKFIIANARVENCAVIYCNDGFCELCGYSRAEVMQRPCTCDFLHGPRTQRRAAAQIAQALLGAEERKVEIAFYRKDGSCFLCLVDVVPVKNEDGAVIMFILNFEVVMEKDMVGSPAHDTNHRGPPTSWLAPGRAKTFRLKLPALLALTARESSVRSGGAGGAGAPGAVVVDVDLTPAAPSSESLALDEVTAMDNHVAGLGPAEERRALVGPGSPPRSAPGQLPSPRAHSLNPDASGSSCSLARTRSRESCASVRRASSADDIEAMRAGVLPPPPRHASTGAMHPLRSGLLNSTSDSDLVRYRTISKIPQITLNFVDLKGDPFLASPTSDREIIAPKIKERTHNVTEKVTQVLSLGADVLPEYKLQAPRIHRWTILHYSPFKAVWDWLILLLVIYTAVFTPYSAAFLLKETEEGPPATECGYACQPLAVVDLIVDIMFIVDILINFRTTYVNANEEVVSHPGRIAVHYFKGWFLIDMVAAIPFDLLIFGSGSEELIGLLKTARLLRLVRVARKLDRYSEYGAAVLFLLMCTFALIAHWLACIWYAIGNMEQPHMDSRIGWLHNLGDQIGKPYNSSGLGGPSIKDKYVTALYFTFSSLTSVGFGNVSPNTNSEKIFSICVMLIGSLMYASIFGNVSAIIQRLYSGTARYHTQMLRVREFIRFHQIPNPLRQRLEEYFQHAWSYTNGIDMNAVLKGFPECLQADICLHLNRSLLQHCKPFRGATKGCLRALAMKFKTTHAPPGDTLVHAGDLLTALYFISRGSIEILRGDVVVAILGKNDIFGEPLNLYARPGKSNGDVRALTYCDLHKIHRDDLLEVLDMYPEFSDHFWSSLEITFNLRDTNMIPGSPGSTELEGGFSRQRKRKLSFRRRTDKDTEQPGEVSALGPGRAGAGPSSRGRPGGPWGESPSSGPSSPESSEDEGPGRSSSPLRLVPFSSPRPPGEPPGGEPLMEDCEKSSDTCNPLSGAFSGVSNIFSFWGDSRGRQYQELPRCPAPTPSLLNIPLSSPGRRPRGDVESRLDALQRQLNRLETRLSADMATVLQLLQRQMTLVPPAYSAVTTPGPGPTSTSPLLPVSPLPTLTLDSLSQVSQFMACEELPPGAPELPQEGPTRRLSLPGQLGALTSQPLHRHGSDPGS

This experiment concerns the target human ether-à-go-go-related gene (hERG) potassium channel (human, UniProt Q12809). The experiment can be described thus: primary screen, population patch clamp on CHO cells stably expressing hERG.
For the molecule `O=C(NCC1CCCO1)C1CCC(=O)N1Cc1ccc(F)cc1` (centres unmarked), the “hERG current change (%, negative = inhibition) at 10uM” value stood at 21.1%.
`COc1ccc(OCc2cc(=O)[nH]c3ccccc23)cc1`: the “hERG current change (%, negative = inhibition) at 10uM” value is 4.48%.
`CC(C)(C)c1nnc(NC(=O)c2ccc(Cl)nc2)s1`: the “hERG current change (%, negative = inhibition) at 10uM” value is given as 4.04%.
The result for `CCN(CC)S(=O)(=O)c1cccc(C(=O)Nc2cc(C)cc(C)c2)c1` reads -32.6%; that for `CC1(C)OC(C(N)=O)C(C(N)=O)O1` (centres unmarked), -9.79%; that for `CC1CCCCN1S(=O)(=O)c1ccc2c(c1)CCN2C(=O)C1CCC1` (centres unmarked), 8.19%.
Take `O=C1c2ccccc2C(=O)N1CCn1nc(Cl)nc1Cl`: the “hERG current change (%, negative = inhibition) at 10uM” value was 2.3%.
In the case of `COc1ccc(O)c(CN2CCCC(C(=O)Nc3cccc(-n4cccn4)c3)C2)c1` (centres unmarked), the “hERG current change (%, negative = inhibition) at 10uM” value is given as -14.9%.
With `O=S(=O)(Nc1ncccn1)c1ccc(NC(=S)Nc2ccc(Cl)cc2)cc1` the figure was 14.9%; with `CC(C)c1ccc(/C=N/NC(=O)c2c(Cl)cnn2C)cc1`, -14.5%; with `COC(=O)C1=C(C)N(c2ccc(Cl)cc2)/C(=C/c2ccc(O)cc2)C1=O`, 6.31%.
The result for `COc1ccc(N2CCN(C(=O)c3ccc4[nH]c(C)c(C)c4c3)CC2)cc1` reads -14.3%; that for `Cn1c(SCC(=O)Nc2ccccc2)nnc1C(F)(F)F`, 32.6%.
With `Cc1cc(C(=O)N/N=C/c2cn(C)nc2C)c2ccccc2n1` the figure was 10.9%.
For the molecule `Cc1ccc2[nH]c(=O)c3cc(C(=O)NCC4CCCO4)sc3c2c1` (centres unmarked), the “hERG current change (%, negative = inhibition) at 10uM” value is given as -3.5%.
As for `Cn1nc(CC(=O)Nc2cccnc2N2CCOCC2)c2ccccc2c1=O`, the “hERG current change (%, negative = inhibition) at 10uM” value was -7%.
The result for `CCC1CCCCN1C(=O)N[C@@H](Cc1ccccc1)C(=O)O` (some centres unmarked) reads 15.2%; that for `Cc1ccc(C(=O)Nc2oc(-c3ccccc3)cc2C#N)cc1`, 18.9%.
With `CCCCC(CC)CNC(=O)CC1Nc2c3ccccc3nc(=S)n2C1=O` (centres unmarked) the figure was 13.9%; with `COc1cccc2c(N/N=C/c3ccccc3)cc(C)nc12`, -9.04%.
Take `O=C(CN(Cc1ccccc1)S(=O)(=O)c1ccccc1)NC1CC1`: the “hERG current change (%, negative = inhibition) at 10uM” value is on record as -3.03%.
With `CC(Oc1ccccc1)C(=O)Nc1nnc(S(=O)(=O)N2CCCCCC2)s1` (centres unmarked) the figure was 4.16%; with `Nn1c(SCC(=O)Nc2ccc3c(c2)OCO3)nnc1C1CCCCC1`, 1.5%; with `Cc1cc(Br)ccc1NC(=O)CN(C)C(=O)Cn1c(=O)cnc2ccccc21`, -13.4%.
The result for `CCOc1ccc(C(=O)CSc2nnc(N)s2)cc1` reads -4.8%.
As for `NC(=O)c1ccc(NC(=O)Nc2ccc3c(c2)OCO3)cc1`, the “hERG current change (%, negative = inhibition) at 10uM” value turned out to be 16.4%.
With `COc1cc(C(=O)NCCN2CCCC2)cc(OC)c1OC.Cl` the figure was 9.26%; with `COc1ccc(CCNC(=O)C(=O)NCCOc2ccccc2Cl)cc1OC`, 23.2%; with `COC(=O)C1=C(C)NC(C)=C(C(=O)OC)C1c1ccccn1`, 5.81%.
In the case of `N#CC1=C(N)N(c2ccc(Br)cc2)C2=C(C(=O)CCC2)C1c1cccnc1` (centres unmarked), the “hERG current change (%, negative = inhibition) at 10uM” value is -27.3%.
The result for `COC(=O)Cn1c(=NC(=O)C2CC2)sc2c(C)cc(C)cc21` reads 11.2%.
`O.Oc1cc(O)c2c(c1)O[C@H](c1ccc(O)c(O)c1)[C@@H](O)C2`: the “hERG current change (%, negative = inhibition) at 10uM” value is 17.4%.
For `Cc1ccc(C(=O)NCC(=O)NCCSc2ccc(Br)cc2)cc1`, the “hERG current change (%, negative = inhibition) at 10uM” value was determined as 4.26%.
As to `O=C(NCc1ccc2c(c1)OCO2)c1cc([N+](=O)[O-])ccc1N1CCCCC1`, the “hERG current change (%, negative = inhibition) at 10uM” value was -27.5%.
With `O=C(CCC1CCCC1)Nc1ccc(C(=O)NCc2cccnc2)cc1` the figure was -24.5%; with `Cn1cnc(S(=O)(=O)NCc2ccccc2)c1`, 2.77%; with `CCC(=O)Nc1ccc(-c2ccc(NC(=O)CC)c(OC)c2)cc1OC`, 10.2%.
In the case of `CCCS(=O)(=O)N1CCCC(C(=O)NCC(OC)OC)C1` (centres unmarked), the “hERG current change (%, negative = inhibition) at 10uM” value is on record as 11%.
With `O=C(NC(=S)N1CCCC1)c1ccccc1Cl` the figure was 15.1%.
With `CCOc1ccccc1C(=O)NC(C)c1ccc2c(c1)OCO2` (centres unmarked) the figure was -30.9%; with `CCOC(=O)C(C)NC(=O)c1cn(-c2ccc(OC)cc2)c(=O)c2ccccc12` (centres unmarked), 5.7%.
Regarding `c1ccc(C(CN2CCOCC2)c2ccccc2)cc1`, the “hERG current change (%, negative = inhibition) at 10uM” value was -10.1%.
The result for `CCN1CCN(C(=O)c2ccc(CN(c3ccc(C)c(C)c3)S(C)(=O)=O)cc2)CC1` reads -20.8%; that for `CCOC(=O)C(C(C)=O)=C1SC2CS(=O)(=O)CC2S1` (centres unmarked), -8.74%.
Regarding `Cc1cc(C)nc(-n2nc(C)cc2NC(=O)CNC(C)c2ccccc2)n1` (centres unmarked), the “hERG current change (%, negative = inhibition) at 10uM” value is on record as -62.2%.
With `Cc1cc(NCCCN(C)C)n2c(nc3ccccc32)c1C#N` the figure was -1.49%; with `O=C(Nc1ccccc1)c1ccc(CSc2ncccn2)cc1`, 19.3%; with `Cc1ccc(-n2ncc3c(=O)n(CC(N)=O)cnc32)cc1`, 13.7%.
With `Nc1ncnc(Nc2ccc(S(N)(=O)=O)cc2)n1` the figure was 6.68%; with `COC(=O)c1ccc(SCC(=O)NC2CCCCC2)c([N+](=O)[O-])c1`, 10.7%.
The result for `Cc1ccc(OC(=O)CCC(=O)Nc2ccc(C)c(C)c2)cc1` reads 13.7%; that for `C=CCNC(=O)C1CCN(S(C)(=O)=O)CC1`, -0.873%; that for `COc1ccc(C(=O)NC2CCN(CC(=O)NCc3ccccc3F)CC2)cc1`, -16.1%.
For the molecule `O=S(=O)(NCC(c1ccco1)N1CCN(c2ccccc2F)CC1)c1ccccc1` (centres unmarked), the “hERG current change (%, negative = inhibition) at 10uM” value was -4.72%.
`Clc1ccc(Nc2ccc(-n3ccnc3)nn2)cc1Cl`: the “hERG current change (%, negative = inhibition) at 10uM” value is listed as -9.9%.
On to `CCCCC(=O)N/N=C/c1c(O)n(CCCC)c(=S)[nH]c1=O`, for which the “hERG current change (%, negative = inhibition) at 10uM” value was 23.6%.
For `COc1cc(C(=O)N/N=C2\CCS(=O)(=O)c3ccc(F)cc32)cc(OC)c1OC`, the “hERG current change (%, negative = inhibition) at 10uM” value is on record as 5.47%.
Regarding `CN1C(=O)/C(=N\OC(=O)c2ccccc2Cl)c2ccccc21`, the “hERG current change (%, negative = inhibition) at 10uM” value is given as -42.8%.
On to `C=CCN1C(=NC(=O)CCC(=O)O)SC2CS(=O)(=O)CC21` (centres unmarked), for which the “hERG current change (%, negative = inhibition) at 10uM” value is reported as 9.82%.

Values taken from publication PMC4336329 (PLoS ONE, 2015).
